Test results taken from the supplement of paper PMC10126150.
Sequences with one replicate were seen in a single cluster, so their values are uncertain.
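Further: ATP exposure 15 min at 22 °C before imaging.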

The sequences below were run on ATP (assay: switch fluorescence ratio, 500 uM ATP over buffer (Cy3 cluster intensity, sum of 5 cycles each) (fold (ratio)); higher = stronger signal-on switching upon ATP binding; sequences stand for … in TCGTCGGCAGCGTCAGATGTGTATAAGAGACAGTTTTTTTTTTTTTTTTTTTTTTTTT…TC). Conditions: aptamer strand: ATP DNA aptamer (quencher-CACCTGGGGGAGTATTGCGGAGGAAGG + anchor), 100 nM annealed; ATP concentration: 500 uM; one replicate.
How it was run: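 After annealing to 100 nM quencher-labelled ATP aptamer, Cy3-labelled switching-strand clusters on a modified Illumina MiSeq flow-cell were imaged in selection buffer. A second image followed after 15 min with 500 uM ATP at 22 °C, and five such buffer/ATP cycles were done, each separated by NaOH stripping and re-annealing. The fluorescence ratio, averaged per switch-domain sequence, is summed target-cycle over summed buffer-cycle Cy3 intensity per cluster, with clusters outside 100-1000 RFU excluded.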
ATGTCCTAAA gave a switch fluorescence ratio of 0.971. CCGAAATGTT was tested, and the switch fluorescence ratio was 1.06. Work on GTGGATAATT yielded a switch fluorescence ratio of 1.02. TGCTTTACCG gave a switch fluorescence ratio of 0.999. CGAATTGTAG was tested, and the switch fluorescence ratio was 0.989. In the case of GAACAACC, the switch fluorescence ratio is reported as 1.04. GGAGTGGGTT gave a switch fluorescence ratio of 1.01. For CACTCACATT, the switch fluorescence ratio was 1.33. For ATACTGATGG, the switch fluorescence ratio was 0.974. Work on TGTATTTAAA yielded a switch fluorescence ratio of 1.1. AAGAGTCGCA was tested, and the switch fluorescence ratio was 0.977. For AAACAAGCGA, the switch fluorescence ratio was 1.06. Sequence GGTCACCAGC has a switch fluorescence ratio of 0.999. In the case of GGGTTGAC, the switch fluorescence ratio is reported as 0.989. TTGTGGTACC was tested, and the switch fluorescence ratio was 1.06. CGATAGATCT was tested, and the switch fluorescence ratio was 0.961. GGTGTTATCT gave a switch fluorescence ratio of 0.975. GCTCGAGCTG was tested, and the switch fluorescence ratio was 0.994. With TGATTACCGG the switch fluorescence ratio was 1.02. Work on GCTCTTGATC yielded a switch fluorescence ratio of 1.01. With TGATTATCCT the switch fluorescence ratio was 1.05. Work on GCCTTGGTCC yielded a switch fluorescence ratio of 1.06. For TCCTGCAAC, the switch fluorescence ratio was 1.48. In the case of TTCATTTGTG, the switch fluorescence ratio is reported as 0.975. Sequence GAAGGTTGTG has a switch fluorescence ratio of 0.96. For CCATACTGTT, the switch fluorescence ratio was 0.931. In the case of ACAAACCGCA, the switch fluorescence ratio is reported as 1.34. In the case of ACTGTAACCT, the switch fluorescence ratio is reported as 1.65. For GGCATAAGAA, the switch fluorescence ratio was 0.977. Sequence CTCCGAAGTT has a switch fluorescence ratio of 2.07. In the case of GATGCCATT, the switch fluorescence ratio is reported as 0.982. Sequence TTTTAGCGAG has a switch fluorescence ratio of 0.998. Sequence GGAGACCTC has a switch fluorescence ratio of 0.972. TGTGATCACC was tested, and the switch fluorescence ratio was 0.971. With CGAATTAGCT the switch fluorescence ratio was 1.03. ACGGTATAGG was tested, and the switch fluorescence ratio was 1.12. For CCATATATGG, the switch fluorescence ratio was 0.994. CATCAACGG showed a switch fluorescence ratio of 1.03. Work on TCGGGGCTAT yielded a switch fluorescence ratio of 0.998. CGGATTCATC gave a switch fluorescence ratio of 0.959. TGAGCAGAGA was tested, and the switch fluorescence ratio was 1.02. Sequence AATGGAGA has a switch fluorescence ratio of 1.03. Sequence AGAATTGGCT has a switch fluorescence ratio of 0.971. Sequence TAGTACACCC has a switch fluorescence ratio of 1.04. Work on TGACTTGTGA yielded a switch fluorescence ratio of 0.976. Sequence GATGTGCCTA has a switch fluorescence ratio of 1.01. For CCGGTTCTAA, the switch fluorescence ratio was 1.03. In the case of CAAAGAGAGC, the switch fluorescence ratio is reported as 1.01. In the case of GGACGGTACA, the switch fluorescence ratio is reported as 1.34. Sequence TGATCAAAAG has a switch fluorescence ratio of 1. With GATAGAGCCT the switch fluorescence ratio was 1.1. AGCGAGGTGA gave a switch fluorescence ratio of 1.03. In the case of TCTGTTATGA, the switch fluorescence ratio is reported as 0.967. Sequence CTATGCATAG has a switch fluorescence ratio of 0.994. Work on CGATGCATTT yielded a switch fluorescence ratio of 1.48. In the case of AGGTAGGTCG, the switch fluorescence ratio is reported as 0.906. For TATTTCACTT, the switch fluorescence ratio was 0.985. In the case of GATCTTTAGC, the switch fluorescence ratio is reported as 1.03. ATCCTTTCCA gave a switch fluorescence ratio of 1.03. For GACCACTAAT, the switch fluorescence ratio was 1.04. TAAGGCGGCC showed a switch fluorescence ratio of 0.972. TTATGGTTTG was tested, and the switch fluorescence ratio was 1. TTAATTCGAT showed a switch fluorescence ratio of 1.04. Sequence GCACACTGTT has a switch fluorescence ratio of 1.01. Sequence GAAGGGCCGC has a switch fluorescence ratio of 1.11. Sequence TCTTTAGACT has a switch fluorescence ratio of 0.964. GTTATATGGG was tested, and the switch fluorescence ratio was 0.943. With GTAATTAGA the switch fluorescence ratio was 0.992. Sequence TGGGGGCC has a switch fluorescence ratio of 1.05. For GCCAGGCAAA, the switch fluorescence ratio was 1.06. For ATGTGGACGA, the switch fluorescence ratio was 0.97. CATTATTTAA showed a switch fluorescence ratio of 0.977. Work on TCATTTGAGG yielded a switch fluorescence ratio of 0.939. GCATGATGC gave a switch fluorescence ratio of 0.994. Sequence TAGCGTGGTC has a switch fluorescence ratio of 1.01. Sequence AAACACCCAC has a switch fluorescence ratio of 1.53. In the case of CGCTTGCGAG, the switch fluorescence ratio is reported as 1.03. Sequence ATACCCGGGG has a switch fluorescence ratio of 0.992. TAAGGGCCGA showed a switch fluorescence ratio of 1. CTGTGACGG gave a switch fluorescence ratio of 1.05. TAACGATTGG showed a switch fluorescence ratio of 1.03. CGAAGGAGGT showed a switch fluorescence ratio of 1.04. Sequence CTCGAGTCGA has a switch fluorescence ratio of 0.974. GGTTAAGAGC gave a switch fluorescence ratio of 0.972. TGCCTAAACG showed a switch fluorescence ratio of 1.03. For TAGGCAATGG, the switch fluorescence ratio was 1.64. For CGGCGGTTG, the switch fluorescence ratio was 0.955. With TGTGGTAAAA the switch fluorescence ratio was 0.956. With ACCAATTAAT the switch fluorescence ratio was 0.97. Work on CCAGCCTGCA yielded a switch fluorescence ratio of 1.09. Sequence TTCCAGCCTT has a switch fluorescence ratio of 1. TAGCGCGCGT was tested, and the switch fluorescence ratio was 1.02. GTTAAGGGTT gave a switch fluorescence ratio of 0.991. TGCCGTGGTG showed a switch fluorescence ratio of 1.08. TCCATCATAA gave a switch fluorescence ratio of 0.975. For GGCTCTAGTC, the switch fluorescence ratio was 0.989. With GGCTTCTGTA the switch fluorescence ratio was 1.01. CCGCTCACGT gave a switch fluorescence ratio of 1.45. GATTGACCAC showed a switch fluorescence ratio of 1.05. In the case of TTTGGTGTCA, the switch fluorescence ratio is reported as 0.959. For GCGGCTAAAG, the switch fluorescence ratio was 1.05. Work on AGGGTTTAG yielded a switch fluorescence ratio of 1.01. Work on GACCAGGGTC yielded a switch fluorescence ratio of 1.03. Work on TCTGAGACAT yielded a switch fluorescence ratio of 1.01. Work on CGGGAAGTCT yielded a switch fluorescence ratio of 0.847. TGGACCTGCC gave a switch fluorescence ratio of 2.51. GCCCAGTCAC gave a switch fluorescence ratio of 1.09. Work on CTAAGTACTA yielded a switch fluorescence ratio of 1.29. Sequence CTGGTCATTA has a switch fluorescence ratio of 0.981. AGGAAGTGGA showed a switch fluorescence ratio of 1.01. Sequence GTGTTGAAAA has a switch fluorescence ratio of 0.974. Work on CAATTATTGG yielded a switch fluorescence ratio of 0.989. Sequence AATGTTTCG has a switch fluorescence ratio of 0.963. For GACTTCGGTA, the switch fluorescence ratio was 1.07. Sequence TCAGCTTGGT has a switch fluorescence ratio of 1.02. For TGAGATTTAA, the switch fluorescence ratio was 1.02. For TCATTACCTT, the switch fluorescence ratio was 1.13. With ATGCATCATT the switch fluorescence ratio was 0.995. Sequence ATGTGTCGCA has a switch fluorescence ratio of 1. ATTTAGAAGC was tested, and the switch fluorescence ratio was 1.01. With GCACGATGTT the switch fluorescence ratio was 0.987. AGAGGAGGCT gave a switch fluorescence ratio of 0.97. Sequence TTGAGGTAGG has a switch fluorescence ratio of 1.04. Work on AAAGACGTAA yielded a switch fluorescence ratio of 1.15. CAGTCAGCGT gave a switch fluorescence ratio of 1.24. In the case of AAAATATGGC, the switch fluorescence ratio is reported as 1.17. For GGGTTCATAC, the switch fluorescence ratio was 0.968. For CATGGTAGAT, the switch fluorescence ratio was 1.01. TTGGGCTCGA showed a switch fluorescence ratio of 1.01. Sequence CCCTGATGGC has a switch fluorescence ratio of 1.04. ATCGATTACC gave a switch fluorescence ratio of 1.03. CGCATCCCAT was tested, and the switch fluorescence ratio was 1.24. With TCGGTGGCTA the switch fluorescence ratio was 0.942. TAACCTCCGT gave a switch fluorescence ratio of 1.21. CTAGCGACTA showed a switch fluorescence ratio of 1.21. In the case of TATCATCATC, the switch fluorescence ratio is reported as 0.948. With TCAGGGG the switch fluorescence ratio was 1.15. In the case of CTAAAGAGTA, the switch fluorescence ratio is reported as 1.01. Work on CTGAGTTCG yielded a switch fluorescence ratio of 1.02. In the case of TGCATGGTGC, the switch fluorescence ratio is reported as 1.09. ACCTAAAGGT showed a switch fluorescence ratio of 1.09. Work on GATCTTCTCC yielded a switch fluorescence ratio of 1.06. Sequence CGTAGCGCG has a switch fluorescence ratio of 0.984. CGATAGAAGG was tested, and the switch fluorescence ratio was 0.983. GTATTGATGC showed a switch fluorescence ratio of 1.03. Work on GTATGTAGCT yielded a switch fluorescence ratio of 0.967. In the case of ACGGCTTACA, the switch fluorescence ratio is reported as 1.12. For CCCCAAGTGT, the switch fluorescence ratio was 4.78. ACAGTTTCCA showed a switch fluorescence ratio of 0.988. TATCATGGAA showed a switch fluorescence ratio of 0.97. ATCGTATTCC was tested, and the switch fluorescence ratio was 1.01. AGACAGAGA showed a switch fluorescence ratio of 1.05. Work on CTCTAACAGT yielded a switch fluorescence ratio of 1.04. In the case of CCCGTCTAGT, the switch fluorescence ratio is reported as 1.01. TGATTGAAGG was tested, and the switch fluorescence ratio was 1.05. GAGTTACATT was tested, and the switch fluorescence ratio was 0.983. ACAGGTGACG was tested, and the switch fluorescence ratio was 1.08. AGACGAATGT gave a switch fluorescence ratio of 0.988.
